# This is one part of the list.
# T1: UNK ZnF1-6 (called full-length) (human, UniProt Q9C0B0 30-357)
# T1 sequence: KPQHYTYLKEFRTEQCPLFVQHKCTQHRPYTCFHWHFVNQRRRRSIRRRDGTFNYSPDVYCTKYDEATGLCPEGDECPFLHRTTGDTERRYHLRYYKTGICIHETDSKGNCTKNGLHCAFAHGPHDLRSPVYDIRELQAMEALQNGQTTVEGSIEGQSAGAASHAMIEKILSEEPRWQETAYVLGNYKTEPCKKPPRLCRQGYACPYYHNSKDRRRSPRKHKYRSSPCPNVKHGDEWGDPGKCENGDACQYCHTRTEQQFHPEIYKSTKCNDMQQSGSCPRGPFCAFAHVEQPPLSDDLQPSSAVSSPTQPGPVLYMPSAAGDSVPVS
# B1: chr17:29166540:29166641:-|CDS|ENSG00000196535|unk|FALSE|unique (ssRNA)
# RNA: GGGAGUUCUACAGUCCGACGAUCCUGGACUCGGGCCACCUAAGUACAGCCAGCUCCAGCGAUGACCUCAAGGGUGAGGAGGGUAGCUUCCGUGGCUCGGUGCUGCAGCGGGCAGCCAAGUUCGGCUCACUGGCCAAGCAGAACCAACAGAGGAUUGAGCAUCA
# B2: chr7:6403675:6403689:+|3pUTR|ENSG00000136238|msi1_unk|total|mutant (ssRNA)
# RNA: GGGAGUUCUACAGUCCGACGAUCACUGUCACUUGACCAAUACUGACCCUCUUUACCUCGCCCACGCGGACACACGCCUCCUGCCGUCGCUUUGCCUAUUGAUGUUCCUUUGGGUCUGUGAGGUUCUGUAAACUGUGCCCGUGCCAACAGAGGAUUGAGCAUCA
# B3: chr2:158176520:158176661:-|CDS|ENSG00000153237|control|control|control (ssRNA)
# RNA: GGGAGUUCUACAGUCCGACGAUCGCUGUUGUUGCUCAAUUUGAUCCUGUUAGAAUGAUGUCAGAUACAAUGGCAUCAAAAGCUAGAAUGGGCAUUGAAAUUGAAGAAGAAUUUAUUCUUCAAAAGCCACUCUUCACAUUGAAUCAACAGAGGAUUGAGCAUCA
# B4: chr7:137014887:137014989:+|CDS|ENSG00000181072|unk|FALSE|unique (ssRNA)
# RNA: GGGAGUUCUACAGUCCGACGAUCGCUACUUGGCUACUGAUUAGAGAACGCAAAAUGAAUAACUCAACAAACUCCUCUAACAAUAGCCUGGCUCUUACAAGUCCUUAUAAGACAUUUGAAGUGGUGUUUAUUGUCCUGGUGGCUCAACAGAGGAUUGAGCAUCA
# B5: chr4:110049619:110049852:-|3pUTR|ENSG00000170522|msi1|total|mutant (ssRNA)
# RNA: GGGAGUUCUACAGUCCGACGAUCUUGUUCAAUGUGACAUAACCGUAUUAUAAUUGGUUAAGCCGCUUAAUGAUCCGGCAAACCCGAUGAAAAGAUCCGGGGCUUCCACACUGCACCGAUUACACGCACACCGCCACGCAUACACAACAGAGGAUUGAGCAUCA
# B6: chr17:80295660:80295761:+|CDS|ENSG00000173821|msi1|total|mutant (ssRNA)
# RNA: GGGAGUUCUACAGUCCGACGAUCGAGUAAACUGAAAACAGGCCUGAUUGUCCUUUUUGCCGUGGAAAAAAUUGAGCUUUUAUCCGAAGGCAGCCUGGACUGGUUGUGUCACCUCCUAACCUCAGAUGCCAGCUCACCAGAUGACAACAGAGGAUUGAGCAUCA
# B7: chr4:70689993:70690094:+|CDS|ENSG00000132467|unk|FALSE|unique (ssRNA)
# RNA: GGGAGUUCUACAGUCCGACGAUCAGAGCCAAAAUUAGAAGAAGAGGCCAGGUUCGUGAAGUUCGUAAAGAAGAGCAACGUUAUAGUGGUGAAUUAUCUGGCAUUCGUGCAGGAGUUAAAAAGAGCAUUAAGCUUAAAUGAAGUCAACAGAGGAUUGAGCAUCA
# B8: chr5:56893553:56893673:+|CDS|ENSG00000095015|unk|total|mutant (ssRNA)
# RNA: GGGAGUUCUACAGUCCGACGAUCUGCUCCAUCGAUCCCUUCACAUUUGUCUCCUGGUUUACGAGAUGUGGCUCUUCGUUGUUCCGAACUUCAACCUCAGGACAGACCUCCAUCAAGAGAGCUACUGAAGCAUCCAGUCUUUCGCAACAGAGGAUUGAGCAUCA
# B9: chr7:101137743:101137929:+|3pUTR|ENSG00000106366|msi1|total|mutant (ssRNA)
# RNA: GGGAGUUCUACAGUCCGACGAUCCCACUGAGGCCCUUUGCAGGAUGGAACUACGGGGCUUACAGGAGCUUUUGUGUGCCUGGCCGAAACUAUUUCUGUUCCAGUCACAUUGCCAUCACUCUUGUACUGCCUGCCACCGCGGAGCAACAGAGGAUUGAGCAUCA
# B10: chr2:147927148:147927248:+|CDS|ENSG00000121989|msi1_unk|FALSE|overlapping (ssRNA)
# RNA: GGGAGUUCUACAGUCCGACGAUCUGAAACCAUUGAAGAAUGUUGGGAUCACGACGCAGAAGCCAGGUUAUCAGCUGGAUGUGUAGGUGAAAGAAUUACCCAGAUGCAGAGACUAACAAAUAUUAUUACCACAGAGGACAUUGUCAACAGAGGAUUGAGCAUCA
# B11: chr2:1633339:1633490:-|3pUTR|ENSG00000130508|msi1|total|mutant (ssRNA)
# RNA: GGGAGUUCUACAGUCCGACGAUCUUCAUAAGCCACAUUCCGAAACAGGUUUGCUUUCAGCUGUCACUUGCACACAUACUGCCCCGUUGUGAACCAAAUGUGAAAAAACCUCCUUCAUCCCAUUGUGUAUCUGAUACCUGCCGACAACAGAGGAUUGAGCAUCA
# B12: chr2:135840511:135840612:-|3pUTR|ENSG00000076003|msi1|total|mutant (ssRNA)
# RNA: GGGAGUUCUACAGUCCGACGAUCGCUUCAGCACUUCCUUUGGUGUGUUUCCUGUCCCAGUGAAGUUGGAACCAAAUAAUGUGCCGUCUCUAUAACCAAUACCUUUGUUUUCAUGUGUAAGAAAAGGCCCAUUACUUUUAAGGUCAACAGAGGAUUGAGCAUCA
# B13: ENSG00000198589:be:win_1401|CDS|ENSG00000198589|bound_else_gene|NA|bound_elsewhere_windowed (ssRNA)
# RNA: GGGAGUUCUACAGUCCGACGAUCGCAUUCAAUUGGAGGAGUACAAGUACUAUUUCCACUUUUUGCACAGUUGGAUUACAGGCAAUAUUUGUCUGAUGAGAUUGAUUUGACUAUAUGUUCAACCUUGCUGGCCUUUAUCAUGGACAACAGAGGAUUGAGCAUCA
# B14: chr7:124031896:124032004:-|CDS|ENSG00000234224|unk|total|mutant (ssRNA)
# RNA: GGGAGUUCUACAGUCCGACGAUCUACCCGCUCAAUUUUAUGGGCCUCAUCACCCUGAUGUAUUUACCUGGCUGGAUAUUCCUCCGUGUGUACCAGGACCUAAUUUCCAACGUGUUGUGGAGGGUGCAGUACGUACCAGCUAACCAACAGAGGAUUGAGCAUCA
# B15: chr12:20680103:20680206:+|CDS|ENSG00000172572|unk|total|mutant (ssRNA)
# RNA: GGGAGUUCUACAGUCCGACGAUCCUUACAGAACCACAAGAUGUGGAAGAAAGUCAUUGAAGAGGAGCAACGGUUGGCAGGCACCGAAAAUCAAUCCCUGGACCAGACCCCUCAGUCGCACUCUUCAGAACAGAUCCAGGCUAUCAACAGAGGAUUGAGCAUCA
# B16: chr9:127749210:127749665:-|CDS|ENSG00000095370|control|control|control (ssRNA)
# RNA: GGGAGUUCUACAGUCCGACGAUCUUCCCACUGCGCUACCUCGAGGCCAGCUAUGGCCUGGGACAGGGGAGUAGCAAGCCUGCUAGCCCCGUCAGCCCCUCAGGCCCCAAGGGCAGCCACAUGAAGCGGCGCAGCGUCACCAUGCAACAGAGGAUUGAGCAUCA
# B17: chr9:37357341:37357442:+|3pUTR|ENSG00000147905|unk|FALSE|unique (ssRNA)
# RNA: GGGAGUUCUACAGUCCGACGAUCAUUAUCUAUGAUUAAAUAAAGUGAGUUUUUGGUUUUGUUUUUUUAAUUUCAGCCAUUCCUAGAGUUACUGAAUAUCCAUGGAGAUCUCAAUUCUCUGUGUCCAACAGGAUAUUAGGUAAGCAACAGAGGAUUGAGCAUCA
# B18: chrX:130230552:130230660:-|CDS|ENSG00000056277|unk|total|mutant (ssRNA)
# RNA: GGGAGUUCUACAGUCCGACGAUCAUCAGAACGUCCAUGUGAUGAAGACAAGACUGAUUCAGAGACAGGAAAGUUGAUCAUGUCCGUCAAUGAGUUUUAUUAUGGAAGGCAUGAAGGAGUCACUGAGAAAGAGCCAAAGACUUACAACAGAGGAUUGAGCAUCA
# B19: ENSG00000142634:stop:overlap|stop_codon|ENSG00000142634|stop_codon|NA|stop_codon (ssRNA)
# RNA: GGGAGUUCUACAGUCCGACGAUCAGGCGGAGGAGAUGAAGCAGCGGAAAGCGGCCUUCAAGGAGCUGCAGUCCACCUUUAAGUAGCGGGGGCUGCAGCCGACCGCCCUGCUCCGGCCCCAGUGUGGUGGGCGAGGGUGGCGCACAACAGAGGAUUGAGCAUCA
# B20: chr22:35295155:35295256:+|3pUTR|ENSG00000100281|unk|FALSE|unique (ssRNA)
# RNA: GGGAGUUCUACAGUCCGACGAUCUUUCUUCUCCUGGCCCUGACAGAGCACUACAGCAUCAAAGUAAAUCUUUGGGGACAGUGUAGCCCAUCUGCAUCCUAUUUAAUUUCUUCCCUUCUCCCCACCAGUGUUGUCACAGGGCUACAACAGAGGAUUGAGCAUCA
# B21: chr14:44924370:44924471:-|3pUTR|ENSG00000179454|unk|FALSE|unique (ssRNA)
# RNA: GGGAGUUCUACAGUCCGACGAUCACCUUUUUAGCAUCAGGGUUUUAUUUUAUUUAUGUUUACACACUAAAGUGUCAUUUAACUAGUUAAGAAUUGUAUUCUUUUUUAUUUUAAAGGUUAUUUGUGUGUAUCAUUGUGGUAAUGCAACAGAGGAUUGAGCAUCA
# B22: chr16:2602459:2602560:+|3pUTR|ENSG00000140992|msi1|FALSE|bound_elsewhere (ssRNA)
# RNA: GGGAGUUCUACAGUCCGACGAUCAACUAUGUACAGAGAACUUUUUACAAAAGGCAGACCUUUUUUAAGCUGUGUAACCCACAUAGCCUAACCACCUGGCAGAAUGACUACGAAUAGGGGUCAUUGUGCUGGUAAAAGCCUCUACAACAGAGGAUUGAGCAUCA
# Molecular target: T1, UNK ZnF1-6 (called full-length)
# Test: nsRBNS (natural sequence RNA bind-n-seq); RBNS binding buffer (assumed for nsRBNS): 25 mM Tris pH 7.5, 150 mM KCl, 3 mM MgCl2, 0.01% Triton X-100, 500 ug/ml BSA, 20 U/ml SUPERase-In, 4 C; UNK is unkempt and MSI1 is Musashi-1; names of the RNAs are library labels; protein concentration not given here; high values mean tight binding
row,Binder,binding signal
1,B1,0.93 enrichment R
2,B2,0.597 enrichment R
3,B3,0.521 enrichment R
4,B4,0.223 enrichment R
5,B5,0.566 enrichment R
6,B6,0.495 enrichment R
7,B7,1.05 enrichment R
8,B8,0.512 enrichment R
9,B9,0.534 enrichment R
10,B10,0.926 enrichment R
11,B11,0.45 enrichment R
12,B12,0.309 enrichment R
13,B13,0.278 enrichment R
14,B14,0.655 enrichment R
15,B15,0.725 enrichment R
16,B16,0.643 enrichment R
17,B17,0.516 enrichment R
18,B18,0.608 enrichment R
19,B19,1.43 enrichment R
20,B20,1.07 enrichment R
21,B21,1.29 enrichment R
22,B22,0.398 enrichment R
